Results taken from US11466066B2, “Variants of human BMP7 protein” (ELI LILLY AND COMPANY, priority 2017, dated 2022).

Assays:
SOX2 = SOX2 expression in GBM cells; type: cell-based, human; conditions: ATRA 1 μg/ml, F9 100 ng/mL
Method: Glioblastoma multiforme stem cells (GBMs) may be obtained from patients with primitive brain tumors undergoing complete or partial surgical resection. These cells may be maintained as neurospheres in defined media with 3.34 g/L of DMEM and 2.66 g/L F12 reconstituted in sterile distilled water and containing 1% glucose, 0.12% sodium bicarbonate, 5 mM hepes, 2 mM L-glutamine, 4 mg/L heparin, 10 ng/mL bFGF, 20 ng/mL EGF, 0.4% BSA, 100 μg/mL apotransferrin, 25 μg/mL insulin, 60 uM putrescine, 30 nM sodium selenite, and 20 nM progesterone. Cells may be cultured at 37° C. in 5% CO2. Cells may be plated by enzymatically dispersing spheres into single cells with a 2-5 minute incubation at 37° C. with TrypLE™ Express cell dissociation enzyme. The enzyme may be quenched with Dulbecco's Phosphate Buffered Saline (DPBS) containing Ca+ and Mg+. Then the cells may centrifuged to remove TrypLE and DPBS and resuspended as single cells in defined media and counted by a Coulter Z2 Cell and Particle counter.
Single GBM cells may be plated in defined media at 2×10^6 cells/15 mL/T75 flask for high content imaging or 5×10^5 cells/2 mL/well in 6-well plates for light microscopy. Cells may be treated with 0.01% DMSO, 1 μg/mL ATRA, 100 ng/mL of a human BMP7 protein variant of the present invention (e.g., human BMP7 protein variant F9 (SEQ ID NO: 8)), or a combination of 1 μg/mL ATRA and 100 ng/mL human BMP7 protein variant of the present invention. For light microscopy imaging of the effect of control BMPs (BMP2 and BMP4), cells may be plated as above in 6-well dishes and treated with 0.01% DMSO, 1 μg/mL ATRA, 100 ng/mL BMP2, 50 ng/mL BMP4, or a combination of BMPs at the same concentrations plus 1 μg/mL ATRA. Example images may be captured at 3, 7, and 30 days post-treatment on a Leica DMIRM inverted microscope using a 20× objective, for example. For growth longer than 7 days, media and treatment may be changed approximately every 10 days beginning at day 10. […]

[1] = tested on: ADSC/ECFC co-culture stimulated with bFGF; experiment: FGF-driven cord formation; type: cell-based; conditions: 100 ng/ml; 10 ng/ml bFGF; 96 hours
Text: An in vitro endothelial cord formation assay, a surrogate of angiogenesis, may be used to investigate the role of human BMP7 proteins on various growth factor established cords including, but not limited to, VEGF, basic FGF, and EGF established cords. Endothelial cord forming cells (ECFCs; passage 4-10 suitable for cord formation) may be cultured in EGM-2 MV (Lona) media containing a final concentration of 10% FBS and passaged onto type 1 collagen (fibrillar) coated flasks prior to seeding into the cord formation assay in vitro. […]
An ADSC/ECFC co-culture was unstimulated (basal) or stimulated with 10 ng/ml bFGF and treated simultaneously with PBS or 100 ng/ml human pro-BMP7 variant F9 or 100 nM sunitinib for 96 hours prior to immunohistochemistry for CD31 (green), α-smooth muscle actin (red), and Hoechst 33342 to stain all nuclei (blue). Resulting CD31-positive endothelial cords were visualized and quantitated using high content imaging. […]

B1: Human pro-BMP7 Variant F9: wild type pro-domain + variant mature BMP7 F9 (402 aa), SEQ ID NO: 16 (protein)
chain: DFSLDNEVHSSFIHRRLRSQERREMQREILSILGLPHRPRPHLQGKHNSAPMFMLDLYNAMAVEEGGGPGGQGFSYPYKAVFSTQGPPLASLQDSHFLTDADMVMSFVNLVEHDKEFFHPRYHHREFRFDLSKIPEGEAVTAAEFRIYKDYIRERFDNETFRISVYQVLQEHLGRESDLFLLDSRTLWASEEGWLVFDITATSNHWVVNPRHNLGLQLSVETLDGQSINPKLAGLIGRHGPQNKQPFMVAFFKATEVHFRSIRSTGSKQRSQNRSKTPKNQEALRMANVAENSSSDQRQACKKHELYVSFRDLGWQDWIIAPEGYAAGYCEGECAFPLNSYMNATNHALVQTLVHVINPETVPKPCCAPTQLGAISVLYFDDSSNVILKKWRNMVVRACGCH
SOX2 percent responders normalized to vehicle control (SOX2; GBM clone CL-1, Day 3): 100%
SOX2 percent responders normalized to vehicle control (SOX2; GBM clone CL-61, Day 0): 84%
SOX2 percent responders normalized to vehicle control (SOX2; GBM clone Cl-1, Day 25): 72%
Connected Tube Area - FGF (% PBS) [1]: 4.39 ± 2.80%
